# Among all 310,000 compounds or so, about 2,200 (0.71%) showed an effect of 50% or more. The effect is printed as a negative number. The list shows a part of the results.
# Molecular target: human ether-à-go-go-related gene (hERG) potassium channel (human, UniProt Q12809)
# Assay: primary screen, population patch clamp on CHO cells stably expressing hERG
# human ether-à-go-go-related gene (hERG) potassium channel, sequence (Q12809 whole entry, looked up): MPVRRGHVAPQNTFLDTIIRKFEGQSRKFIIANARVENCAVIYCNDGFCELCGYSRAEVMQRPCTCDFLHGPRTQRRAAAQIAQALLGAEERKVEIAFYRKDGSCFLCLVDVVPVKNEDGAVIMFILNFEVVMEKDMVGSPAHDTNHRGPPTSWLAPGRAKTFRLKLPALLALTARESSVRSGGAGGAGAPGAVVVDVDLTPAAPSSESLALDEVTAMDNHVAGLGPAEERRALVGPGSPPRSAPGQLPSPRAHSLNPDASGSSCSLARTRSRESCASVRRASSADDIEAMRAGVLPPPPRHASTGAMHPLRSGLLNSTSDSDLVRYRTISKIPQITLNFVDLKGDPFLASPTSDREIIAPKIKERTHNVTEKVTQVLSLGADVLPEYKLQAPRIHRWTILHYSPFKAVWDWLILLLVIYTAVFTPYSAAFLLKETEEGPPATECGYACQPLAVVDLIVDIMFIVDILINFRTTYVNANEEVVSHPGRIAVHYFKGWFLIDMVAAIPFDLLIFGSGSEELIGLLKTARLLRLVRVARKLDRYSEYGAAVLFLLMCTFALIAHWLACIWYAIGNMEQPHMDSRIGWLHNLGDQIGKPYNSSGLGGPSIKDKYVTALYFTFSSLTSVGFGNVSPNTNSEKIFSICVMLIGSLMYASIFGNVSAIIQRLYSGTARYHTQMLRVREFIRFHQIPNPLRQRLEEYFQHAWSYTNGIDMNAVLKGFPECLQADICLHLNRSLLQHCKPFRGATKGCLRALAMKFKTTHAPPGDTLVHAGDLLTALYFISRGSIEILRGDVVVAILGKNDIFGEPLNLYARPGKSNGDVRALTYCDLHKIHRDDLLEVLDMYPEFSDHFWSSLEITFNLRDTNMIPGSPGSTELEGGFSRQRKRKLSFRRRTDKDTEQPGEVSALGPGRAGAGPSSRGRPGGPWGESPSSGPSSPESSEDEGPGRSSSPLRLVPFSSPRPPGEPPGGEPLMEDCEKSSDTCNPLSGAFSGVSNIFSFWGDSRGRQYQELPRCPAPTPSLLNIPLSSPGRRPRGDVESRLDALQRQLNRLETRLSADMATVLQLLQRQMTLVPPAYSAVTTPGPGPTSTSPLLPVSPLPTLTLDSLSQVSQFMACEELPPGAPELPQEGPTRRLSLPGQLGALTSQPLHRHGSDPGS
row,Structure (SMILES),"hERG current change (%, negative = inhibition) at 1uM [%]"
1,COc1cccc(OC)c1C(=O)OCC(=O)NCc1ccco1,10.3
2,Cc1cc(NC(=O)C2CC(=O)N(c3ccc(F)cc3)C2)no1 (centres unmarked),4.12
3,O=C(CCc1nnc(C2CCCCC2)o1)NCc1cccc(-n2cccn2)c1,16.4
4,CN(C)S(=O)(=O)c1cccc(NC(=S)NCc2ccco2)c1,27.1
5,COC(=O)C1CSC(C(=O)OC)N1C(=O)Nc1c(C)cccc1C (centres unmarked),5.66
6,CCn1cc(/C=C(\NC(=O)c2ccccc2F)C(=O)N2CCCC2)c2ccccc21,6.3
7,CCc1nnc(NC(=O)C2COc3ccccc3O2)s1 (centres unmarked),2.41
8,CC1(C)C(C(=O)NN2C(=O)c3ccccc3C2=O)C1(C)C,12.8
9,C=CCn1c(SCC(N)=O)nc2scc(-c3ccc(C)o3)c2c1=O,0.329
10,NC1=NC(=O)C(Cc2ccccc2)S1 (centres unmarked),5.86
11,COc1cc2c(cc1OC)-c1nnc(-c3cccs3)n1C1(CCCC1)C2,5.8
12,COc1ccc(S(=O)(=O)NC2CC(=O)N(c3ccc(C)c(C)c3)C2)cc1C (centres unmarked),9.54
13,CCCS(=O)(=O)N1CCN(C(=O)CCC2CCCC2)CC1,2.43
14,COc1ccc(Cl)cc1C(=O)C1CCCN(Cc2cnc(N3CCOCC3)s2)C1 (centres unmarked),-24.7
15,Cc1c(CNC2CCCC(C)C2C)c(C(=O)O)c(C)n1Cc1ccccc1 (centres unmarked),16
16,Cc1nc(NC(=O)c2ccco2)sc1-c1csc(Nc2ccc(Cl)cc2)n1,14.6
17,CCCCCCNC(=O)c1cccc(-c2ccc(C)c3ccccc23)n1,-5.6
18,CCOC(=O)c1c(S(=O)(=O)NCC(=O)NCc2ccccc2Cl)c(C)n(C)c1C,7.51
19,CC12CC(NC(=O)N1Cc1ccccc1)c1ccccc1O2 (centres unmarked),2.79
20,O=C(c1cccc(S(=O)(=O)N2CCCCC2)c1)N1CCOCC1,4.48
21,COc1ccc(/C=C\c2nc(O)c([N+](=O)[O-])c(=O)[nH]2)cc1O,11.2
22,COCCOC(=O)c1[nH]c2c(c1C)C(=O)CC(c1ccco1)C2 (centres unmarked),1.23
23,CS(=O)(=O)N(Cc1ccco1)CC(O)Cn1cc(C=O)c2ccccc21 (centres unmarked),-0.274

row,Structure (SMILES),"hERG current change (%, negative = inhibition) at 1uM [%]"
1,Cc1cccc(NC(=S)N/N=C/c2ccc([N+](=O)[O-])s2)c1,11.2
2,NC(=O)c1ccc(-n2nnnc2SCC(=O)Nc2ccc(F)cc2)cc1,25.3
3,O=C1c2ccccc2C(=O)N1CCCCSc1nnc2ccccn12,-1.96
4,CC(Oc1ccc(C(=O)NC2CCCCC2)cc1)C(=O)O (centres unmarked),14.1
5,Cc1ccc(S(=O)(=O)NCC(=O)OCC(=O)N(C)C2CCS(=O)(=O)C2)cc1 (centres unmarked),15.9
6,CC1CCN(CCC(=O)Nc2ccc(F)c(F)c2)CC1,8.68
7,O=C(CSC1=NC(=O)C(c2ccccc2)C(=O)N1)Nc1ccccc1Cl (centres unmarked),10.1
8,COC(=O)C1=C(c2ccc(F)cc2F)C[C@@H]2CC[C@H]1N2C(=O)NCc1ccco1,9.41
9,CC(c1ccccc1)N(NC(=O)C(O)(c1ccccc1)c1ccccc1)C(=O)c1ccccc1 (centres unmarked),9.29
10,COC(=O)c1cc(C(=O)OC)cc(N2C(=O)CC(Sc3nc(C)cc(C)n3)C2=O)c1 (centres unmarked),-1.29
11,CC1CCCN(S(=O)(=O)c2ccc([N+](=O)[O-])cc2)C1 (centres unmarked),6.42
12,O=C(Cn1cc([N+](=O)[O-])cn1)NCCc1nc2ccccc2[nH]1,14.7
13,Cc1ccc(C(=O)COC(=O)c2ccccc2N2C(=O)C3C4CCC(C4)C3C2=O)cc1C (centres unmarked),-23.7
14,O=C(Nc1ccc(Br)cc1)c1cccnc1N1CCCCC1,0.624
15,O=S(=O)(c1ccc(Cl)cc1)N1CCCC(c2nc(-c3ccc(F)cc3)no2)C1 (centres unmarked),7.73
16,CCCCCCCc1c(O)nc(SCCN2CCOCC2)[nH]c1=O.Cl,-2.95
17,Cc1ccccc1NS(=O)(=O)c1ccc2c(c1)NC(=O)CO2,9.63
18,COC(=O)C1=C(C)NC(=O)NC1c1c(O)ccc2ccccc12 (centres unmarked),10.7
19,COc1ccc(-c2ccc(SCC(=O)NCc3ccco3)nn2)cc1OC,-3.88
20,CC1=C(C(=O)Nc2cccc(C(=O)NCc3ccc(F)cc3)c2)SCCO1,15.3
21,C=C(C)CNC(=S)N/N=C\c1ccc2c(c1)OCO2,-15.4
22,O=C1OCC/C1=C\c1ccc(O)cc1,5.83
23,O=C(c1ccco1)N1CCCN(Cc2nc(Cc3ccccc3)no2)CC1,1.8

row,Structure (SMILES),"hERG current change (%, negative = inhibition) at 1uM [%]"
1,CCC(CC)C(=O)Nc1cccc(-c2ccc3nncn3n2)c1,9.22
2,COc1ccc(Cn2c(=O)[nH]c3cc(C(=O)N4CCN(c5ccccc5F)CC4)ccc3c2=O)cc1,11.8
3,CC(=O)Nc1ccccc1OC(C)C(=O)N1CC(C)CC(C)C1 (centres unmarked),4.64
4,COc1ccc(OCCCC(=O)Nc2nncs2)cc1,9.03
5,O=C1/C(=C/C=C/c2ccccc2)Oc2c1ccc(O)c2CN1CCN(CCO)CC1,10.4
6,O=C(O)c1ccc(-n2c(O)c(/C=C3\C=Nc4ccccc43)c(=O)[nH]c2=O)cc1,14.5
7,CCN(CC(=O)NCc1ccc(Cl)cc1)C(=O)CCc1ccccc1O,-13.1
8,Cc1ccc(Oc2cc(NN3CCCCC3)c([N+](=O)[O-])cc2[N+](=O)[O-])c([N+](=O)[O-])c1,9.74
9,CCOc1cccc(OCCCNCCCOC)c1,-2.81
10,Cn1nc(C(=O)Nc2ccc3c(c2)OCCO3)c2ccccc2c1=O,-4.96
11,O=C1Nc2ccccc2/C1=N\N=C\C1=C(N2CCOCC2)C(=C\c2ccccc2)/CC1,11.3
12,CCSC1=N/C(=C\c2ccccc2)C(=O)N1,8.42
13,Cc1csc(NC(=O)c2ccc(=O)[nH]c2)n1,10.5
14,O=C(Nc1cccnc1)C(Cc1ccccc1)n1cccc1 (centres unmarked),13.4
15,Cc1ccc(C)c(C(=O)CN2C(=O)NC3(CCC(C)CC3)C2=O)c1 (centres unmarked),5.6
16,CN(Cc1ccn[nH]1)C(=O)C1CCC(=O)N(Cc2cccc(C(F)(F)F)c2)C1 (centres unmarked),8.8
17,CCOc1cccc2sc(N(CCCN(C)C)C(=O)c3ccc(S(=O)(=O)N(C)c4ccccc4)cc3)nc12.Cl,-22.8
18,COc1ccccc1/C=C/C=NC1C(=O)N(c2ccccc2)[N+](C)=C1C (centres unmarked),13.1
19,Cc1ccc(CNC(=O)N2CCN(c3ccc(C)cc3)CC2)cc1,14.1
20,CCOc1ccc(NS(=O)(=O)c2ccc(C(=O)N3CCCCC3)cc2)cc1,-10.8
21,CNC(=O)C(C)N1c2cccc3cccc(c23)S1(=O)=O (centres unmarked),15
22,O=C(c1ccccc1)c1ccc2nc(-c3ccc(NC(=O)c4ccccc4Br)cc3)[nH]c2c1,16
23,COc1ccccc1C(=O)Nc1nc(C)cc(C)n1,15.9

row,Structure (SMILES),"hERG current change (%, negative = inhibition) at 1uM [%]"
1,CCCCNC(=O)Nc1cc(C(=O)OC)ccc1Cl,11.7
2,Cc1cc(C(=O)OCC(=O)N2CC(C)OC(C)C2)ccc1[N+](=O)[O-] (centres unmarked),5.59
3,COc1cccc(NC(=O)Cc2nnc(SCC(=O)NC3CCCC3)n2C)c1,12
4,CC(NCc1ccc(S(N)(=O)=O)cc1)C(=O)NCc1ccccc1 (centres unmarked),10.6
5,CCc1ccc(NC(=O)N2CCCCCC2)cc1,3.52
6,Cc1ccc(NC(=S)N/N=C/c2c(Cl)cccc2Cl)c(C)c1,9.75
7,C[C@H](CCC(=O)NCCS(=O)(=O)[O-])[C@H]1CC[C@H]2[C@@H]3[C@H](O)C[C@@H]4C[C@H](O)CC[C@]4(C)[C@H]3C[C@H](O)[C@]12C.O.[Na+],15.5
8,COc1ccc(S(=O)(=O)NCC2CCCN(Cc3cccnc3)C2)cc1 (centres unmarked),-8.34
9,O=C(CSc1ncn[nH]1)NCc1ccc2c(c1)OCO2,13.1
10,CC(C)(C)c1cc(CCC(=O)N2CCNCC2)c(C(C)(C)C)cc1O,6.95
11,O=C(N/N=C/c1ccco1)c1ccccc1OCc1ccc(Br)cc1,8.32
12,CCCC(=O)N1CCN(Cc2ccc3c(c2)OCO3)CC1,9.39
13,Cc1ccc(NC(=O)CSCC(=O)Nc2ncc3c(n2)CC(c2ccco2)CC3=O)cc1 (centres unmarked),3.4
14,O=S(=O)(Nc1ncccn1)c1ccc(F)cc1,11.9
15,O=C(Nc1cccnc1)c1cc(S(=O)(=O)N2CCOCC2)ccc1Br,-17.2
16,C=CCNC(=O)CN(c1ccc(F)cc1)S(=O)(=O)c1ccc(OC)cc1,-0.23
17,Cc1ccc(CNC(=O)c2ccc(N3CCCC3=O)cc2)cc1,5.86
18,CC(C)CCOP(=O)(c1ccc(N(C)C)cc1)C(O)c1ccc(C(C)C)cc1 (centres unmarked),14.4
19,Cc1ccccc1CN1CCN(CC(=O)NCc2ccccn2)C1=O,18.7
20,Cc1cc(-c2nn(-c3ccccc3)cc2/C=C2\SC(N)=NC2=O)ccc1OC(C)C,7.78
